Among the data in the antibiotic and cytotoxicity screens of Wong et al. (2023) are cytotoxicity call values, retold here.

The other results are listed elsewhere or left out.

The test system of this assay is HSkMC (human skeletal muscle cells). In words: cytotoxicity call (relative viability < 0.9). The note with it: 10 µM.
As for `O=C(C[C@@H]1CC[C@@H](NS(=O)(=O)c2ccccc2F)[C@H](CO)O1)NCCCN1CCOCC1`, the cytotoxicity call is “inactive”.
Turning to `Cc1noc(C)c1NC(=O)Nc1ccc2c(c1)CC(=O)N([C@@H](C)CO)C[C@H](C)[C@H](CN(C)C(=O)NC(C)C)O2`, the cytotoxicity call is “inactive”.
In the case of `NC(=O)CCN1C(=O)[C@@H]2[C@@H](C1=O)[C@@H]1C=C[C@@H]2C1` it was “inactive”; in that of `CO[C@@H]1CN(C)C(=O)c2cc(NS(=O)(=O)c3ccccc3C)ccc2OC[C@@H](C)N(S(C)(=O)=O)C[C@@H]1C`, “inactive”; in that of `C[C@H]1O[C@@H]2[C@H](O[C@@H]1C)N(S(C)(=O)=O)CCN2S(C)(=O)=O`, “inactive”.
In the case of `C[C@@H]1CCCCO[C@@H](CN(C)C(=O)C2CCCCC2)[C@@H](C)CN([C@H](C)CO)C(=O)c2cc(NC(=O)c3ccccc3)ccc2O1` it was “inactive”; in that of `Cn1cccc1C(=O)N[C@H]1CN(S(C)(=O)=O)[C@H]2CCCO[C@@H]12`, “inactive”.
In the case of `CCS(=O)(=O)Nc1ccc2c(c1)C(=O)N(C)C[C@@H](OC)[C@@H](C)CN(C(=O)c1ccc3c(c1)OCO3)[C@H](C)CO2` it was “inactive”; in that of `C[C@H](CO)N1C[C@H](C)[C@@H](CN(C)S(=O)(=O)c2cn(C)cn2)Oc2c(NC(=O)c3ccc(-c4nccs4)cc3)cccc2C1=O`, “inactive”.
For the compound `CCc1cccc2cc[nH]c12`, the cytotoxicity call is “inactive”.
Consider `C[C@@H]1CN([C@@H](C)CO)C(=O)c2cc(NC(=O)Cc3ccccc3)ccc2O[C@@H](C)CCCCO[C@H]1CN(C)S(=O)(=O)c1cccs1`, for which the cytotoxicity call is “inactive”.
On to `C[C@@H]1CN([C@H](C)CO)C(=O)c2cc(NC(=O)Nc3cccc4ccccc34)ccc2O[C@@H]1CN(C)S(=O)(=O)c1cccs1`, for which the cytotoxicity call is “inactive”.
